Test results taken from PubChem BioAssay AID1346428 (National Center for Advancing Translational Sciences (NCATS), 2018).
Values joined by “and” are separate entries in the source; they are usually repeats but may differ in a detail not shown here. Equal values may be shown once. Among all 48,000 compounds or so, about 1,200 (2.5%) were called active. About 2% were inconclusive and are not listed.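 Rule for the calls: active = activation of at least 60% and not above a set upper limit (about 1 call in 100 departs from these limits); inconclusive = activation of 40% to 60%, or above that upper limit; inactive = activation under 40%.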 The list shows a part of the results.

Each molecule was assayed against Probable G-protein coupled receptor 32 (Homo sapiens) (UniProt O75388) (assay: qHTS for Agonists of Human Resolvin D1 Receptor DRV1). Conditions: CHO-K1 GPR32 beta-arrestin PathHunter luminescence, 90 min; at 76.9 µM; hits give high values; zero percent set by DMSO-only wells.
Sequence of UniProt O75388 (O75388 whole entry, looked up): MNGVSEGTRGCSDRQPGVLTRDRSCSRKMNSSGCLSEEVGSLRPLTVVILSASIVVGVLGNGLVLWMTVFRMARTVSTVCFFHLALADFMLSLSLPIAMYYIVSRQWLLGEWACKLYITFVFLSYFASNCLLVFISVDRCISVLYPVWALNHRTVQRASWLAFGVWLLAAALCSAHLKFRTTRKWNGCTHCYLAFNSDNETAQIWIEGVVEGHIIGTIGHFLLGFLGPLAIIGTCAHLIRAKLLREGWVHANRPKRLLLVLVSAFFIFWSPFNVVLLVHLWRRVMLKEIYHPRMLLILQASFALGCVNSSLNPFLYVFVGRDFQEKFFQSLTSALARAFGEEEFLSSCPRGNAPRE
Procedure, shortened: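 Readings come from a cell-based beta-arrestin complementation format: CHO-K1 GPR32 stable cells (2,500/well) treated 90 min with compounds, then beta-Gal substrate added for 1 h before chemiluminescence imaging.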
Note: 0% is about no effect.

activation, inactive:
COc1ccccc1C(=O)Nc1ccc(C(=O)OCc2cc(=O)n3nc(C)sc3n2)cc1 -4.58%
CN(C(=O)c1ccc2c(Cl)c3c(nc2c1)CCC3)c1ccccc1F -3.98%
COc1ccc(CCN2C(=O)CN(C3CCCCCC3)C(=O)C2c2ccc(OC(C)C)c(OC)c2)cc1OC (stereo not drawn) -17.2%
Cc1ccc(CNC(=O)c2nnc(Cc3ccc(Cl)cc3)o2)cc1 4.51%
Cc1ccc(NC(=O)Cn2c(-c3cncs3)nc3ccccc32)c(Br)c1 -4.17%
Cc1ccc(CNC(=O)CN2C(=O)C3(SCC(=O)N3c3ccc(F)cc3)c3ccccc32)cc1 (stereo not drawn) 3.79%
Cc1c(Cl)cccc1Nc1nc2ccc(C(=O)c3ccccc3)cc2n2cnnc12 -23.3%
CC1CN(C(=O)N2CCC(C(=O)NCCCc3ccccc3)CC2)c2ccccc2O1 (stereo not drawn) -6.2%
CC(=O)N1CCc2c(sc3c2c(=O)n(Cc2ccccc2)c(=O)n3Cc2cc(C)ccc2C)C1 -1.31%
COc1ccc2c(c1)Cc1sc(NC(=O)c3cccc(Br)c3)nc1-2 -19%
CCOc1ccc(Nc2oc(/C=C/c3cccc(OC)c3)nc2C#N)cc1 35.6%
CCCCCn1c(CCNC(=O)c2cccc(C)c2)nc2ccccc21 11.2%
Cc1ccc(-c2c(C(=O)NCCc3ccccc3)oc(=O)c3ccccc23)cc1 -31.9%
COc1ccc(-c2cc3ccc(O)c(CN4CCCC4)c3oc2=O)cc1 7.05%
CCCSc1nc(-c2ccccc2)[nH]c1S(=O)(=O)c1ccc(C)cc1 10.9%
COc1ccc(-c2n[nH]c3c2cnc2ccc(F)cc23)cc1 14.5%
CCn1cc(C(=O)NCCCOC)c(=O)c2cc(S(=O)(=O)N3CCc4ccccc4C3)ccc21 17.1%
Cc1cc(C)c2oc(-c3ccc(Cl)c(NC(=O)c4cccs4)c3)nc2c1 -7.75%
COc1ccc2c(c1)c1c(c(=O)n(Cc3ccccc3)c(=O)n1Cc1cccc(Cl)c1)n2C -37.7%
COc1ccccc1NC(=O)c1cnc(SCC(=O)N2CCOCC2)n(C)c1=O 0.397%
O=c1oc2ccc3ccccc3c2cc1-c1nnc(Nc2ccccc2F)s1 -6.98%
Cc1cc(C)cc(NC(=O)C2CCN(S(=O)(=O)c3cn(C)cn3)CC2)c1 -9.12%
CCOC(=O)C1CCCN(CC(=O)Nc2cc(C)c3c(=O)oc4ccccc4c3n2)C1 (stereo not drawn) -11.1%
CCc1cccc(C)c1NC(=O)Cn1nnc(-c2nc(-c3ccccc3F)no2)c1N 13.3%
Cc1cc2c(cc1NS(=O)(=O)c1cccc(C#N)c1)n(C)c(=O)c(=O)n2C 3.66%
Cc1ccc(=O)n(-c2ccccc2)c1 -10.9% and -5.64%
CCCOc1ccc(C2C(=O)N(C3CCC(C)CC3)CC(=O)N2Cc2cccc(OC)c2)cc1OC (stereo not drawn) -12.5%
CC1=Nc2cc(C(=O)N3CCC(C)CC3)ccc2Sc2ccc(Cl)cc21 18.9%
COc1ccc(NS(=O)(=O)c2cc3c(cc2C)N(C(C)=O)CCO3)cc1 2.64%
Cn1cc(S(=O)(=O)N2CCCCCC2)cc1C(=O)Nc1ccc(Cl)c(C(F)(F)F)c1 36.5%
O=C1c2ccccc2CCc2ccccc21 10.7%
CCc1ccc(NC(=O)C2CCCN2S(=O)(=O)c2ccc3c(c2)CCCC(=O)N3)cc1 (stereo not drawn) 6.73%
COc1ccc(CCNC(=O)c2ccc(Cn3c(=O)c4ccccc4n(Cc4cccc(F)c4)c3=O)cc2)cc1OC -0.102%
Cc1ccc(CNC(=O)c2ccc(Cn3c(=O)c4ccccc4n(CC(=O)Nc4c(C)cc(C)cc4C)c3=O)cc2)cc1 -10.8%
O=C(NCC(c1cccs1)S(=O)(=O)c1cccs1)c1cccc(F)c1 (stereo not drawn) 43.5%
COc1ccc(OC)c(-n2nnc(-c3nc(-c4cc(OC)c(OC)c(OC)c4)no3)c2C)c1 -3.77%
c1cnc(N2CCN(c3ncc4c(n3)CCNC4)CC2)nc1 6.76%
O=c1oc2c3c(ccc2c2ccccc12)OCN(Cc1ccc(Cl)cc1)C3 -62.5%
COc1ccc(-c2nc3ccccc3n3c(-c4ccccc4)c4c(=O)n(C)c(=O)n(C)c4c23)cc1OC 2.24%
COc1cc2c(cc1OC)C(COc1ccc3c(C)cc(=O)oc3c1)N(C(=O)c1ccccc1C)CC2 (stereo not drawn) -1.45%
COc1ccc(-n2nnnc2C2CCN(S(=O)(=O)c3ccc(C)cc3)CC2)cc1 -14.1%
COCCn1c(=O)[nH]c2cc(C(=O)N3CCN(c4ccccc4)CC3)ccc2c1=O 41.7%
CN1C(=O)c2ccccc2Sc2ccc(NC(=O)N3CCN(c4ccccc4)CC3)cc21 0.0031%
CC(=O)N1c2ccccc2C(C)(c2ccc(C)cc2)CC1(C)C (stereo not drawn) 42.8%
O=C(NCc1ccccc1)c1cccn1-c1nnc(N2CCCC2)s1 1.85%
CCOc1ccc(CNC(=O)c2nn(-c3ccc(OC)cc3)c(=O)c3c2c2ccccc2n3C)cc1 -10.7%
CC(=O)N1CCc2cc(S(=O)(=O)NC(Cc3ccccc3)C(=O)Nc3cc(C)ccc3C)ccc21 (stereo not drawn) -13.6%
Cc1ccc(-c2ccc(CCC(=O)O)n2-c2ccc(C(N)=O)cc2)cc1 -14.7%
CCOc1ccc(C(=O)Nc2ccc3nc(SCC(=O)N4CCc5ccccc54)sc3c2)cc1 -0.151%
CC1=C(c2ccc(C)cc2)S(=O)(=O)N(Cc2ccc(C(=O)Nc3ccc(C)c(F)c3)cc2)C1=O -6.58%
NC(=O)CSc1ncc2c(n1)-c1ccccc1N(Cc1ccc(F)cc1)S2(=O)=O 17.3%
O=C(NCCCN1CCCCCC1)c1ccc2c(c1)sc1nc(-c3ccccc3)cn12 -4.72%
COc1ccc(-c2nc(CS(=O)(=O)CC(=O)NCc3ccccc3Br)c(C)o2)cc1 -21.5%
